# Source: paper PMC12040169 (PLOS Biology, 2025)
# The list shows a part of the results.
# Test system: T1, C. trachomatis L2/434/Bu expressing GFP (CTL2-GFP)
# T1 construct: L2/434/Bu GFP intracellular growth in HeLa cells
# Design: species or system HeLa; C. trachomatis total inclusion area by high-content imaging, normalised to DMSO
# Conditions: total inclusion area; 28.5 h, 10 µM; inhibitor
# How it was run: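 Following bulk GFP and resorufin fluorescence reads, infected cells were fixed, Hoechst-stained and imaged on a high-content platform. Inclusion total area and number per well served as growth proxies; nuclei counts indicated host viability. MICs were derived as for the fluorescence assay.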
row,SMILES,% of control remaining
1,Cc1cccn2cc(C(=O)NCCCn3cccn3)nc12 [CBK281749],110.29
2,N#C/C(=C\Nc1ccc(S(N)(=O)=O)cc1)c1nc(-c2cccc([N+](=O)[O-])c2)cs1 [CBK262366],105.462
3,CC(=O)Nc1ccc(N2C(=O)c3ccc(S(=O)(=O)c4ccc5c(c4)C(=O)N(c4ccc(NC(C)=O)cc4)C5=O)cc3C2=O)cc1 [CBK262105],99.4118
4,CCn1c(C)nc2cc(NC(=O)Cc3c(C)noc3C)ccc21 [CBK281834],97.821
5,Cc1cc(NC(=O)c2cc(Cl)ccc2[N+](=O)[O-])nc2c1c(=O)oc1ccccc12 [CBK291248],105.347
6,O=S(=O)(c1ccc(Cl)cc1)N1CCN(CC(O)Cn2c3ccccc3c3ccccc32)CC1 (stereo not shown) [CBK264383],113.631
7,COc1cccc([C@H]2CN(C(C)=O)[C@@H]3CCN(C4CCCC4)C[C@H]23)c1 [CBK283375],84.9293
8,O=C(NCc1ccccc1)c1ccc(N2CCOCC2)nc1 [CBK200244],124.55
9,CCCCCCN1CCN(c2nccn(CCOc3cc(F)c(F)cc3F)c2=O)CC1 [CBK045889C],58.7501
10,CC(=O)N1CCCc2cc(C(O)CN3CCCC(C)C3)ccc21 (stereo not shown) [CBK282142],106.323
11,Cc1ccc(S(=O)(=O)N2C(=O)CCC2C(=O)O/N=C(\N)c2cccnc2)cc1 (stereo not shown) [CBK266864],111.643
12,Cc1ccc(C)c(NC(=O)CCc2c(C)nn3cnnc3c2C)c1 [CBK304358],59.0387
13,O=S(=O)(NCCc1csc(-c2cccnc2)n1)c1cccnc1 [CBK287546],78.8747
14,CC1(C)Cc2c(ccc3ccccc23)C(NC(Cc2c[nH]c3ccccc23)C(=O)O)=N1 (stereo not shown) [CBK262569],96.5061
15,CCN(CC)CCCNc1nccc(-c2cn(C)nc2C)n1 [CBK306654],51.9609
16,COC(=O)c1sccc1NS(=O)(=O)c1ccc(C(F)(F)F)cc1[N+](=O)[O-] [CBK004510],94.708
17,O=c1c2[nH]c3ccccc3c2ncn1Cc1ccccc1 [CBK287809],124.523
18,Cc1nccn1CC1(O)CCN(C(=O)C(C)c2ccccc2)CC1 (stereo not shown) [CBK285388],80.7191
19,CN1CCN(C(=O)COc2ccc(S(=O)(=O)Nc3ccc(Cl)cc3)cc2)CC1 [CBK268248],91.118
20,CC(CNC(=O)COc1ccc2ccccc2c1Br)CN(C)C (stereo not shown) [CBK267369],120.615
21,O=C(CCc1ccccc1)Nc1cccc2nsnc12 [CBK265680],108.215
22,Nc1ncnc(NCCc2ccc(Cl)cc2)c1[N+](=O)[O-] [CBK267351],100.751
23,CCOC(=O)c1cnn(C2CCCN(Cc3cc[nH]n3)C2)c1 (stereo not shown) [CBK305125],30.4779
24,N=c1n(CCCOc2ccc(Br)cc2)c2ccccc2n1CC(N)=O [CBK268786C],69.5847
25,O=C(O)c1ccc(NS(=O)(=O)c2ccc(Cl)cc2)cc1O [CBK200023],71.6743
26,O=C(Nc1c[nH]c(=O)[nH]c1=O)c1ccc(Oc2ccc(C(=O)Nc3c[nH]c(=O)[nH]c3=O)cc2)cc1 [CBK261184],97.3495
27,CC(=O)c1ccc(-c2nc(NC(=O)CC#N)cnc2-c2ccc(F)c(Cl)c2)s1 [CBK036841],70.9638

row,SMILES,% of control remaining
1,COc1ccc(C(NC(=O)c2ccc(N3C(=O)CCC3=O)cc2)c2ccccc2)cc1 (stereo not shown) [CBK285737],108.56
2,NC(=O)CCN(CCC(N)=O)S(=O)(=O)c1ccc(N)cc1 [CBK262134],87.2388
3,O=C(c1ccc2[nH]ccc2c1)N1CCCC1 [CBK149074],100.871
4,CCOc1ccc(Cl)cc1CN(C)C(=O)NCC(c1ccco1)N(C)C (stereo not shown) [CBK307013],78.4416
5,CN(Cc1ccccc1)C(=O)c1c[nH]nc1C1CCCN(CC2CCCCC2)C1 (stereo not shown) [CBK286489],91.1309
6,CCOc1ccc(N)cc1S(N)(=O)=O [CBK010112],97.8245
7,COc1ccc2c(c1)c(CN1CCCN(S(=O)(=O)c3ccc(-c4ccccc4)cc3)CC1)cn2C [CBK063125],54.8316
8,FC(F)(F)Oc1cccc(-c2cn3ccnc3c(NCCc3ccccn3)n2)c1 [CBK038017],126.679
9,O=C(O)c1cccc(N(CCO)CCO)c1 [CBK262419],96.8679
10,COc1ccc([C@@]23CC[C@@H](C(=O)Nc4ccc(C(F)(F)F)cn4)C[C@@H]2N(C)CC3)cc1OC [CBK046310T],91.6901
11,CCc1nc2cccnc2n1CCNC(=O)Cc1cccs1 [CBK283639],81.6489
12,CN(CCC1CCN(c2ccncc2)CC1)C(=O)c1cc2sccc2[nH]1 [CBK305468],57.0169
13,CCOC(=O)C1(C2CCCCC2)CCN(C(=O)c2ccc(OC(F)(F)F)cc2)CC1 [CBK136921],81.1118
14,O=C(CN1CCN(Cc2ccc3c(c2)OCO3)CC1)Nc1ccc(SC(F)(F)F)cc1 [CBK074385],80.6809
15,O=C1C2CCCCC2C(=O)N1CCCN1CCC(c2nc(-c3ccc(F)cc3)c3ccccn23)CC1 (stereo not shown) [CBK035972],103.288
16,CCCCCC1=NN(C(=O)OCC)C(O)(C(F)(F)F)C1 (stereo not shown) [CBK027739],70.9161
17,Cc1csc2ncc(C(=O)NCc3ccccc3)c(=O)n12 [CBK287290],77.0045
18,COc1ccc(S(=O)(=O)Nc2ccccc2C(=O)O)cc1C(=O)O [CBK264084],120.028
19,CSCCC(=O)NCc1ccc(-c2csnn2)cc1 [CBK149304],100.062
20,Cn1c(C(=O)NC2CCOC(C)(C)C2)cc2ccccc21 (stereo not shown) [CBK304344],76.3029
21,NC(=O)COc1cccc(/C=C2/SC(Nc3cccc(C(=O)O)c3)=NC2=O)c1 [CBK265027],91.5057
22,CC(C)n1cccc1CN[C@@H]1CCC(=O)N[C@H]1c1cccc(F)c1 [CBK282908],101.646
23,N#CCCn1cc(C(=O)n2nnc3ccccc32)c(-c2cc3ccccc3o2)n1 [CBK268073],99.1927
24,COCCCNC(=O)Cn1c(-c2ccc(F)cc2)cc2cccnc21 [CBK285385],62.9977
25,COc1ccc(C(=O)OC(C)(C)C)c(-c2nccnc2N2CCCN(C)CC2)c1 [CBK037360],142.08
26,C=CCn1cc(CN2CCC(O)(c3ccccc3C)CC2)c(C)n1 [CBK282581],110.352
27,c1csc(CNc2cncc(-c3ccncc3)n2)c1 [CBK065238],72.4861

row,SMILES,% of control remaining
1,CCOC(=O)c1sc(-c2cccc(C(F)(F)F)c2)nc1O [CBK075064],93.9465
2,COc1ccc(-c2csc(NC(=O)C(C)C)c2C(=O)O)cc1 [CBK286622],113.513
3,FC(F)(F)c1ccc2c(c1)N(CCCN1CCN(C34CC5CC(CC(C5)C3)C4)CC1)c1ccccc1S2 [CBK261938],85.4016
4,COc1ccc(CSCc2n[nH]c(=O)[nH]2)cc1[N+](=O)[O-] [CBK267425],95.6255
5,CC(C(=O)NC1(C#N)CCCCC1)N1CCOC(Cn2cccn2)C1 (stereo not shown) [CBK305337],84.5837
6,Fc1ccc(-c2nccnc2OCc2ccc3c(c2)OCO3)cc1 [CBK106896],103.526
7,COC[C@H]1CCCN1C(=O)Cn1[nH]c(C)c(Cc2c(Cl)cccc2Cl)c1=O [CBK115407],103.715
8,CCOc1cc(CN2CCN(C/C=C/c3ccccc3)CC2)ccc1OC [CBK261573],87.5138
9,COc1ccccc1-c1ccc(CC2(C(=O)NC3CCCCC3)CCOCC2)cc1 [CBK286515],103.594
10,COc1cc(CNc2nc[nH]n2)ccc1OCc1ccc(C)cc1 [CBK269768],101.889
11,O=C(CN1C(=O)N2CCN=C2c2ccc(Cl)cc21)NCC1CC1 [CBK282877],100.031
12,CCN1CCN(c2nccnc2OCc2cccnc2)CC1 [CBK083142],69.1834
13,COc1ccc(OC)c(NC(=O)CC2NCCNC2=O)c1 (stereo not shown) [CBK266477],78.7168
14,O=C(CSc1nnc2ccccn12)Nc1ccccc1 [CBK287328],68.0424
15,CSCCC(C(=O)O)N1C(=O)c2ccccc2C1=O (stereo not shown) [CBK218448],102.248
16,Cc1cc(C)c2c(N)c(C(=O)Nc3ccc(Br)cc3)sc2n1 [CBK072019],33.4761
17,CC(Sc1ncc(-c2ccc(F)cc2)n1Cc1ccccc1)C(=O)NC1CC1 (stereo not shown) [CBK297105],79.4888
18,CC(C)c1cccc2c1OC(C(C)C)C(=O)N2 (stereo not shown) [CBK009286],89.4741
19,CCOc1ccc(NC(=O)C2CCC(C)(C(=O)O)C2(C)C)cc1 (stereo not shown) [CBK295665],55.4826
20,Cc1cc2c(N3CCN(Cc4nc5ccccc5[nH]4)CC3)ncnc2s1 [CBK268213C],81.3515
21,CC(C)[C@H](CO)Nc1nc(-c2ccc(N3CCOCC3)cc2)cn2ccnc12 [CBK066151],84.4428
22,CCCNc1nc(-c2ccc(F)c(F)c2)cn2ccnc12 [CBK066573],93.9236
23,N#Cc1ccccc1N1CCN(c2cncc(-c3cccs3)n2)CC1 [CBK065656],105.272
24,CN(C)CCN(C)C(=O)c1ccc(-c2ccco2)nc1N(C)C [CBK106078],91.2565
25,Clc1ccc(COc2cccc3cccnc23)cn1 [CBK002718],87.3307
